Assay results taken from paper PMC7819943, “Rice protein-binding microarrays: a tool to detect cis-acting elements near promoter regions in rice”.
This is one part of the list.

molecular target: T1, OsWOX13 (Oryza sativa, UniProt Q5QMM3 1-267); assay: protein-binding microarray (RPBM); PBS, 2% BSA, 51.3 ng/ul salmon testes DNA, 50 uM zinc acetate, 200 nM TF, 25 C, 1 h; high values mean tight binding; details: protein: recombinant; tags: N-terminal polyhistidine and DsRed monomer fusion (pET32a); label: CyDye5-dUTP incorporated in the synthesized complementary strand; 3' TTTTT single-stranded linker to array surface; dsDNA, one strand shown
T1 sequence: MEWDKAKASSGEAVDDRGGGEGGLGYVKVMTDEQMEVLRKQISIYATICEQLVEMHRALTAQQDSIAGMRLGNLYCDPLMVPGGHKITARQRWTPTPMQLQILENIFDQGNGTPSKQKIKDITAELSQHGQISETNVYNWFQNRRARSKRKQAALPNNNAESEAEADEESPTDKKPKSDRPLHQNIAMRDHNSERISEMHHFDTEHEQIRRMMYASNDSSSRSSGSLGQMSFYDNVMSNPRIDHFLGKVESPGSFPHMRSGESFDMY
Procedure, shortened: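 Polyhistidine-tagged DsRed fusions of transcription factors, joined at the N-terminus, were expressed in E. coli BL21-CodonPlus and isolated on Ni–NTA. They were incubated at 200 nM for 1 h at 25 °C on a custom Agilent array, double-stranded and BSA-blocked, in PBS with 2% BSA, salmon testes DNA and 50 µM zinc acetate. The binding signal is per-feature fluorescence intensity (arbitrary units) read on an Axon 4000B scanner after washing.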

| Sequence | binding signal |
| --- | --- |
| GAGATCACATTAACTAATTGATTAACTAATTACTTCATCCCGGAGTCACCTAGTGCAG | 29600 fluorescence intensity (a.u.) |
| GAATGATTGTTTGTTGAGAATAATTTGTTCAGTCGATCTGCGGAGTCACCTAGTGCAG | 50900 fluorescence intensity (a.u.) |
| CTTAATTAATTATACACACAAACATTCCCTCCAATGCATGCGGAGTCACCTAGTGCAG | 37600 fluorescence intensity (a.u.) |
| ACGAGAAAATCTAATCAACCAAGCTTAGATTAGATCATTACGGAGTCACCTAGTGCAG | 9510 fluorescence intensity (a.u.) |
| TCAGCAAATTACACGAAATTTAGATGTTTTGTAGTAAAATCGGAGTCACCTAGTGCAG | 6410 fluorescence intensity (a.u.) |
| TGGATTACTCATAATGATTATGTCATATAGGTGATGTTGCCGGAGTCACCTAGTGCAG | 6150 fluorescence intensity (a.u.) |
| ATTAAATAATTTCTTTGATAAAATTGTTTTGCAGGCATATCGGAGTCACCTAGTGCAG | 22300 fluorescence intensity (a.u.) |
| ATCTCTCTCTCTCTCTCTCTCTCTCTCTCTCTCTCTCTCTCGGAGTCACCTAGTGCAG | 5190 fluorescence intensity (a.u.) |
| CGAAAACTAAACAGATGGGAGCAGAATTATCCAATCCCAGCGGAGTCACCTAGTGCAG | 8610 fluorescence intensity (a.u.) |
| ATTATAAACAGACAAACAGTAGAGCTCACAACTTACCCCGCGGAGTCACCTAGTGCAG | 7230 fluorescence intensity (a.u.) |
| TGCTTGATTTGACCATCCTACATATATTTCAGAATGGTTCCGGAGTCACCTAGTGCAG | 23100 fluorescence intensity (a.u.) |
| ACTACCCATCAATTAAACCCGCCCGATTCGCATCTAACGGCGGAGTCACCTAGTGCAG | 13200 fluorescence intensity (a.u.) |
| TTGATTGGGATTTGATCAGAGTTCGCCGTTGCGCGCCGTCCGGAGTCACCTAGTGCAG | 51200 fluorescence intensity (a.u.) |
| GCCTAATTAATCCATGATTAACCATAAGTGCTGCAGTAACCGGAGTCACCTAGTGCAG | 33500 fluorescence intensity (a.u.) |
| TTAATTTACACCAGTTTTAGAAATTGGGTAATAACCTATACGGAGTCACCTAGTGCAG | 4470 fluorescence intensity (a.u.) |
| AAGACAGAAACACCTTAATTTGTTACCAATGGAGCATATGCGGAGTCACCTAGTGCAG | 4840 fluorescence intensity (a.u.) |
| TTAATAATTTACGCTATGCCTTTGTTCTATGGCTTCACTACGGAGTCACCTAGTGCAG | 6700 fluorescence intensity (a.u.) |
| TTCCTGTCTATCATCGGTTCATTGCTTTGATACGCACCACCGGAGTCACCTAGTGCAG | 5120 fluorescence intensity (a.u.) |
| ATGACAGCCCATCACAGTTTGGACATCCAGATGGGCCAAACGGAGTCACCTAGTGCAG | 5080 fluorescence intensity (a.u.) |
| TGATAGATAGATTTGTTGTTTCGGCTCGCATTCAATTCAGCGGAGTCACCTAGTGCAG | 36700 fluorescence intensity (a.u.) |
| ATATGATTTCTGACTCTGTTTTACCATTGTTTTGTTTGTCCGGAGTCACCTAGTGCAG | 18800 fluorescence intensity (a.u.) |

| Sequence | binding signal |
| --- | --- |
| CTAATTACACAGTTTGTAGAGAAATCGTGAGACGAAATCTCGGAGTCACCTAGTGCAG | 3360 fluorescence intensity (a.u.) |
| AAAGTTTGGATTTTGATTGAAATTGAAGATGATGTGACTGCGGAGTCACCTAGTGCAG | 26700 fluorescence intensity (a.u.) |
| GCCAAGTCAATTAAAACCAGGAACAATACTATCGAGGGATCGGAGTCACCTAGTGCAG | 3450 fluorescence intensity (a.u.) |
| GCTGACTGATTACCTTTTCTAGGGTGACCATGATGATTCACGGAGTCACCTAGTGCAG | 49700 fluorescence intensity (a.u.) |
| CCCGTACGTGTTACCTAATCATGATGGGATGCCATAATACCGGAGTCACCTAGTGCAG | 3570 fluorescence intensity (a.u.) |
| CATTTGCTAATGATGGATTAATTAGGCTTAATAAATTTGTCGGAGTCACCTAGTGCAG | 19900 fluorescence intensity (a.u.) |
| AAAATTAATTTTCATATTTGGCTTCCAATGCCACGCCGAGCGGAGTCACCTAGTGCAG | 34300 fluorescence intensity (a.u.) |
| AGTTAATGAAATAATGCCAGCCTGCTGTCTTCTGATTATCCGGAGTCACCTAGTGCAG | 6010 fluorescence intensity (a.u.) |
| CAGAATTAGATTTCCCCGGGCCCACCCCTTTTCCATGGCCCGGAGTCACCTAGTGCAG | 5280 fluorescence intensity (a.u.) |
| ATAAATCATAATATAGACCCTATTTAGATTTGTAGTACCACGGAGTCACCTAGTGCAG | 3640 fluorescence intensity (a.u.) |
| CACGCAAATTAGTTAGTTAATCCTCGAGAGAGTTTGCAAGCGGAGTCACCTAGTGCAG | 22400 fluorescence intensity (a.u.) |
| CGGAGATGATTATAGATCTTTTGGAAGGAAATCTGAGTAACGGAGTCACCTAGTGCAG | 18300 fluorescence intensity (a.u.) |
| GATCATAATTGATAGAATGTAGGGAGAAGAAGTAGGGATGCGGAGTCACCTAGTGCAG | 25700 fluorescence intensity (a.u.) |
| CCGCACCTAAATTGATTGATTATTAATTTAACTGCCGCTCCGGAGTCACCTAGTGCAG | 65500 fluorescence intensity (a.u.) |
| TGGTATCAAAATTGCGGGTAATTAGAGGATTTAATTAAGCCGGAGTCACCTAGTGCAG | 13000 fluorescence intensity (a.u.) |
| AGGATTGGACGTACGTGATCAAATCATTCAGTTTGGACGGCGGAGTCACCTAGTGCAG | 4780 fluorescence intensity (a.u.) |
| ATCAACCAGTAATCAATTGACCAAGCGGTTCTTGCGCCTACGGAGTCACCTAGTGCAG | 4790 fluorescence intensity (a.u.) |
| ATATGATAGAAAAGTTGTGTATGTATGAAATGTTTGATGTCGGAGTCACCTAGTGCAG | 9060 fluorescence intensity (a.u.) |
| CCCTAATAAATAGGAAAGTTATATTACTGAATAGTTAAGTCGGAGTCACCTAGTGCAG | 4640 fluorescence intensity (a.u.) |
| GAGATATTAATGCAAATTATCGGTAGCCAAAATTAATGGGCGGAGTCACCTAGTGCAG | 4990 fluorescence intensity (a.u.) |
| CCTAATTGGGTCGCTCAGGAGACAGTATACCTTCAACTTTCGGAGTCACCTAGTGCAG | 40400 fluorescence intensity (a.u.) |
